# From the BET-seq Pho4 binding data (Le et al. 2018)
# Some of the results follow. These are noisy estimates, calculated here from bound and input reads.
# Molecular target: T1, Pho4 (S. cerevisiae) (UniProt P07270)
# T1 sequence: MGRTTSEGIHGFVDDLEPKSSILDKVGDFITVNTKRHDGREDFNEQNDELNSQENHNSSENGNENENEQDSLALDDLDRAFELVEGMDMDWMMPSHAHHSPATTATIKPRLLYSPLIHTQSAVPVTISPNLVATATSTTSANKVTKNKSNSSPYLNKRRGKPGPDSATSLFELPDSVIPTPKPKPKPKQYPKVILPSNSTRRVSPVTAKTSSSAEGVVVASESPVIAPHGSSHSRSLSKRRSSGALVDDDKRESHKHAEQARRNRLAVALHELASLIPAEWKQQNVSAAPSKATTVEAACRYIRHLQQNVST
# Experiment: relative binding free energy (BET-seq); higher = weaker binding
# Conditions: reference: library average
row,Sequence,relative binding free energy
1,AGAGGCACGTGAGCTG,0.17 kcal/mol
2,GTTGGCACGTGATTAT,-0.05 kcal/mol
3,CGGGTCACGTGTAGGT,0.16 kcal/mol
4,TGTGTCACGTGAACGA,0.26 kcal/mol
5,AGATTCACGTGTTGTG,0.31 kcal/mol
6,GTTGGCACGTGGGCAG,-0.16 kcal/mol
7,TGTGGCACGTGGTCAC,-0.29 kcal/mol
8,GCTGTCACGTGGAAGT,0.16 kcal/mol
9,AAAAGCACGTGGGTGA,-0.11 kcal/mol
10,TGATACACGTGTGGCT,0 kcal/mol
11,GTGGCCACGTGGGTTC,-0.13 kcal/mol
12,TTACGCACGTGTTGGC,-0.03 kcal/mol
13,GTCTTCACGTGAGGTA,0.48 kcal/mol
14,GGAAGCACGTGTGGCT,0.02 kcal/mol
15,AGATGCACGTGTGGTA,0.11 kcal/mol
16,GTCGTCACGTGGTGTA,-0.06 kcal/mol
17,GTTCGCACGTGAAGGG,0.24 kcal/mol
18,CAGTGCACGTGGGGAG,-0.23 kcal/mol
19,AGTACCACGTGGGTTA,-0.11 kcal/mol
20,TTGTGCACGTGCGTTA,-0.02 kcal/mol
21,AGTGGCACGTGCAGGA,-0.08 kcal/mol
22,GTAGGCACGTGGAGTC,-0.01 kcal/mol
23,GAATCCACGTGGGGGT,-0.11 kcal/mol

row,Sequence,relative binding free energy
1,GTGATCACGTGCTTAG,0.13 kcal/mol
2,GTGGACACGTGTGGTG,0.18 kcal/mol
3,TGGGGCACGTGCCTTT,-0.13 kcal/mol
4,ATGGGCACGTGCGTGG,-0.17 kcal/mol
5,TTGGGCACGTGACTTG,0.11 kcal/mol
6,AATTTCACGTGGTCAT,0.21 kcal/mol
7,TTGCTCACGTGAGAGT,0.31 kcal/mol
8,TTTGGCACGTGCTAAG,-0.11 kcal/mol
9,ACGTCCACGTGGGGTA,-0.08 kcal/mol
10,CGTTGCACGTGTTTTA,-0.02 kcal/mol
11,GGAAGCACGTGGGGCC,-0.12 kcal/mol
12,ATTCACACGTGTTGGT,0.15 kcal/mol
13,ACGGACACGTGTGGTT,0.1 kcal/mol
14,TCAAACACGTGTTAGG,0.14 kcal/mol
15,TATGACACGTGGTAAA,-0.01 kcal/mol
16,ATCGGCACGTGAGAGG,0.14 kcal/mol
17,GTCGTCACGTGACGTG,0.24 kcal/mol
18,CTTTGCACGTGGTTTG,-0.02 kcal/mol
19,GTACTCACGTGGAGGG,0.18 kcal/mol
20,TAGTTCACGTGGGTCA,0.14 kcal/mol
21,TTCGGCACGTGTTAGT,-0.03 kcal/mol
22,ATGATCACGTGAATGT,0.2 kcal/mol
23,GTTTGCACGTGTGGTC,0.24 kcal/mol

row,Sequence,relative binding free energy
1,GTCGACACGTGATGTG,0.15 kcal/mol
2,TGGAGCACGTGAGGAG,0.25 kcal/mol
3,GGTTGCACGTGTAGTG,0.01 kcal/mol
4,GTTATCACGTGTCGGC,0.29 kcal/mol
5,CAGGTCACGTGATAGT,0.31 kcal/mol
6,ATTAGCACGTGTGAGT,-0.04 kcal/mol
7,GTTGTCACGTGTTTGC,0.19 kcal/mol
8,ATTAGCACGTGAACGG,0.13 kcal/mol
9,AGTTCCACGTGTAGTT,0.15 kcal/mol
10,TACAGCACGTGTTATG,0 kcal/mol
11,CGGCTCACGTGTTTGT,0.14 kcal/mol
12,ATGGTCACGTGAAGCG,0.29 kcal/mol
13,AGAGGCACGTGTGAAG,0.17 kcal/mol
14,AGTTGCACGTGATAGA,0.04 kcal/mol
15,TGTGACACGTGGGAAT,-0.01 kcal/mol
16,ATGTGCACGTGGCATG,-0.25 kcal/mol
17,TGTAGCACGTGATAAG,0.06 kcal/mol
18,TAGGGCACGTGCGGGC,-0.27 kcal/mol
19,GTGGTCACGTGAGGGG,0.33 kcal/mol
20,TTCGTCACGTGGCGGA,0.05 kcal/mol
21,GTTTCCACGTGTCAGT,0.12 kcal/mol
22,AGCGTCACGTGGGCAG,-0.14 kcal/mol
23,TAATTCACGTGGTTTA,0.35 kcal/mol

row,Sequence,relative binding free energy
1,GACTTCACGTGTGGGC,0.42 kcal/mol
2,GTGATCACGTGGCGGC,0.09 kcal/mol
3,GTAATCACGTGCGGCT,0.32 kcal/mol
4,TTTTGCACGTGGGCTG,0.01 kcal/mol
5,GTTTGCACGTGAGTCT,0.34 kcal/mol
6,GTTCTCACGTGATTAT,0.23 kcal/mol
7,TATTCCACGTGCGGGG,0.01 kcal/mol
8,TTTATCACGTGTACAG,0.09 kcal/mol
9,TCGGGCACGTGTAAGG,0.11 kcal/mol
10,TCACGCACGTGTTGGT,-0.05 kcal/mol
11,ATAGGCACGTGGTATT,-0.1 kcal/mol
12,TGGGTCACGTGAACGG,0.31 kcal/mol
13,GGGGTCACGTGTAGAT,0.24 kcal/mol
14,GTCAGCACGTGGGAGG,-0.18 kcal/mol
15,GGAAGCACGTGGTGGG,-0.21 kcal/mol
16,TGAAACACGTGTCATT,0.18 kcal/mol
17,TGTGCCACGTGGTCGG,-0.37 kcal/mol
18,CTGGTCACGTGCTGGT,0 kcal/mol
19,GGTGTCACGTGACGGA,0.37 kcal/mol
20,TCAGGCACGTGGGGGC,-0.21 kcal/mol
21,ATTATCACGTGATAGG,0.28 kcal/mol
22,GGTGACACGTGATTGC,0.2 kcal/mol
23,TGGTGCACGTGTCGAG,0 kcal/mol

row,Sequence,relative binding free energy
1,AGTTTCACGTGATTGC,0.24 kcal/mol
2,CTTAGCACGTGGGGTC,-0.24 kcal/mol
3,AGCGACACGTGGTGAT,0.03 kcal/mol
4,AGGTGCACGTGTATAA,0.03 kcal/mol
5,AGTTGCACGTGTCACG,0.04 kcal/mol
6,GGAGTCACGTGGTATT,0.09 kcal/mol
7,TTTTTCACGTGGCATT,0.27 kcal/mol
8,TGGATCACGTGTGACG,0.1 kcal/mol
9,ATTAGCACGTGGAATT,0.05 kcal/mol
10,CGGTTCACGTGCTGGG,0.18 kcal/mol
11,TGCATCACGTGGGTGA,0.08 kcal/mol
12,GGTGGCACGTGTTTGT,-0.02 kcal/mol
13,CGTCACACGTGGTTGG,0.08 kcal/mol
14,ATGGTCACGTGTGCGA,0.03 kcal/mol
15,TGCTACACGTGGGAAT,0.12 kcal/mol
16,AGGGTCACGTGGACAA,0.09 kcal/mol
17,AGAGTCACGTGGTAAT,-0.11 kcal/mol
18,TTTTTCACGTGTTCAG,0.39 kcal/mol
19,GAGGGCACGTGGGCAA,-0.21 kcal/mol
20,GGAGGCACGTGGACTG,-0.1 kcal/mol
21,GGTGACACGTGTGTAG,0.07 kcal/mol
22,ATATTCACGTGGGTTG,0.06 kcal/mol
23,GTTTACACGTGACAGT,0.34 kcal/mol
